± gives the standard deviation of the averaged measurements.

The data set deals with Sindbis virus TE/5'2J-GFP. Briefly: percent infected (GFP+ in RFP+ ISG-expressing cells); higher = more infection (less antiviral activity). Here is the method: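 Confirmatory testing of 87 ISGs. Triplicate wells of BHK/HA-Zeo (control) or BHK/NZAP-Zeo (ZAP) cells were transduced with lentiviruses co-expressing a human ISG plus TagRFP, then infected 48 h later with SINV TE/5'2J-GFP (moi 5). The % GFP+ cells among RFP+ cells was measured by flow cytometry at 8 h post infection. Fluc lentivirus served as control. Three independent experiments.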

The mark [1] stands for this setting: experiment: confirmatory screen 1, BHK/HA-Zeo (control).
Setting [2] is: experiment: confirmatory screen 1, BHK/NZAP-Zeo (ZAP).
Setting [3] is: experiment: confirmatory screen 2, BHK/HA-Zeo (control).
[4] abbreviates: experiment: confirmatory screen 2, BHK/NZAP-Zeo (ZAP).
The mark [5] stands for this setting: experiment: confirmatory screen 3, BHK/HA-Zeo (control).
Where [6] appears, read: experiment: confirmatory screen 3, BHK/NZAP-Zeo (ZAP).
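Also: Interferon-defective BHK-21 derivatives, ZAP line overexpressing the rat ZAP N-terminal zinc finger domain fused to Zeocin resistance, GFP scored within live singlet TagRFP+ cells.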

Regarding CXCL10 (no sequence given), the percent infected runs as follows: under setting [1], 95.6 ± 1.7%; under setting [2], 85.71 ± 0.65%; under setting [3], 95.22 ± 0.18%; under setting [4], 94.02 ± 0.3%; under setting [5], 92.28 ± 0.59%; under setting [6], 92.05 ± 0.13%.
In turn, ISG15 (no sequence given) returned a percent infected under setting [1] of 94.6 ± 1.1%; a percent infected under setting [2] of 83.8 ± 2%; a percent infected under setting [3] of 95.82 ± 0.47%; a percent infected under setting [4] of 93.84 ± 0.38%; a percent infected under setting [5] of 94.41 ± 0.1%; a percent infected under setting [6] of 92 ± 0.57%.
